How the values were obtained:
[1] = tested on: potato tubers; experiment: T2H / ethoxy diglycol vapor treatment of potato tubers, skin lesion count (Table 10); conditions: Cecile, T2H […] alone or in mixture, EDG alone 0.45 ml/kg, n = 5 tubers
[2] = tested on: potato tubers; experiment: T2H / propylene glycol vapor treatment of potato tubers, recirculating set-up, skin lesion count (Tables 5-8); conditions: for Fresh Lesions/5 Tubers (96 h) / No. of Lesions/5 Tubers (48 h) / TOTAL No. of Lesions/5 Tubers / Total Number of Lesions/5 Tubers 48 h / Total Number of Lesions/5 Tubers TOTAL / Total No. of Lesions 48 h / Total No. of Lesions 96 h / Total No. of Lesions TOTAL: vapor; for Total No. of Lesions 48 h / Total No. of Lesions 96 h / Total No. of Lesions TOTAL: Table 8, T2H […] alone or in mixture, PG alone 0.45 ml/kg, n = 5 tubers
[3] = Table 5, Norland Red, T2H 0.27 ml/kg alone or in mixture, PG alone 0.27 ml/kg
[4] = Table 5, Yukon Gold, T2H 0.27 ml/kg alone or in mixture, PG alone 0.27 ml/kg
[5] = Table 6 (repeat experiment), Norland Red, T2H 0.27 mL/kg alone or in mixture, PG alone 0.27 mL/kg
[6] = Table 6 (repeat experiment), Yukon Gold, T2H 0.27 mL/kg alone or in mixture, PG alone 0.27 mL/kg
[7] = Table 7, Norland Red, T2H 0.10 mL/kg alone or in mixture, PG alone 0.10 mL/kg
[8] = Table 7, Yukon Gold, T2H 0.10 mL/kg alone or in mixture, PG alone 0.10 mL/kg

Structure (SMILES): CCC/C=C/C=O [T2H, trans-2-hexenal]
- TOTAL (No. of Lesions) [1]: 49
- Total No. of Lesions 48 h [1]: 12
- Total No. of Lesions 96 h [1]: 37
- Fresh Lesions/5 Tubers (96 h) [2, 3]: 40
- No. of Lesions/5 Tubers (48 h) [2, 3]: 32
- TOTAL No. of Lesions/5 Tubers [2, 3]: 72
- Fresh Lesions/5 Tubers (96 h) [2, 4]: 32
- No. of Lesions/5 Tubers (48 h) [2, 4]: 24
- TOTAL No. of Lesions/5 Tubers [2, 4]: 56
- TOTAL No. of Lesions/5 Tubers [2, 5]: 55
- Total Number of Lesions/5 Tubers 48 h [2, 5]: 26
- TOTAL No. of Lesions/5 Tubers [2, 6]: 58
- Total Number of Lesions/5 Tubers 48 h [2, 6]: 33
- Total Number of Lesions/5 Tubers 48 h [2, 7]: 9
- Total Number of Lesions/5 Tubers TOTAL [2, 7]: 25
- Total Number of Lesions/5 Tubers 48 h [2, 8]: 16
- Total Number of Lesions/5 Tubers TOTAL [2, 8]: 39
- Total No. of Lesions 48 h ([2]; Cecile): 74
- Total No. of Lesions 96 h ([2]; Cecile): 58
- Total No. of Lesions TOTAL ([2]; Cecile): 132
- Total No. of Lesions 48 h ([2]; Isabella): 43
- Total No. of Lesions 96 h ([2]; Isabella): 37
- Total No. of Lesions TOTAL ([2]; Isabella): 80
- lesions/skin damage on potato tubers (FIG. 1) ([2]; trans-2-hexenal vapors at 0.15 ml/kg): lesions/skin damage observed

Structure (SMILES): CC(O)CO (centres unmarked) [PG, propylene glycol]
- Fresh Lesions/5 Tubers (96 h) [2, 3]: 13
- No. of Lesions/5 Tubers (48 h) [2, 3]: 10
- TOTAL No. of Lesions/5 Tubers [2, 3]: 23
- Fresh Lesions/5 Tubers (96 h) [2, 4]: 10
- No. of Lesions/5 Tubers (48 h) [2, 4]: 5
- TOTAL No. of Lesions/5 Tubers [2, 4]: 15
- TOTAL No. of Lesions/5 Tubers [2, 5]: 17
- Total Number of Lesions/5 Tubers 48 h [2, 5]: 14
- TOTAL No. of Lesions/5 Tubers [2, 6]: 24
- Total Number of Lesions/5 Tubers 48 h [2, 6]: 15
- Total Number of Lesions/5 Tubers 48 h [2, 7]: 5
- Total Number of Lesions/5 Tubers TOTAL [2, 7]: 8
- Total Number of Lesions/5 Tubers 48 h [2, 8]: 6
- Total Number of Lesions/5 Tubers TOTAL [2, 8]: 8
- Total No. of Lesions 48 h ([2]; Cecile): 15
- Total No. of Lesions 96 h ([2]; Cecile): 11
- Total No. of Lesions TOTAL ([2]; Cecile): 26
- Total No. of Lesions 48 h ([2]; Isabella): 12
- Total No. of Lesions 96 h ([2]; Isabella): 19
- Total No. of Lesions TOTAL ([2]; Isabella): 31

Structure (SMILES): CCOCCOCCO [EDG, ethoxy diglycol]
- TOTAL (No. of Lesions) [1]: 14
- Total No. of Lesions 48 h [1]: 3
- Total No. of Lesions 96 h [1]: 11

— patent US20250241301A1, “COMPOSITIONS AND METHODS FOR INHIBITING PATHOGEN GROWTH ON PLANTS AND IMPROVING CROP SAFETY” (priority 2024, published 2025)
